The record followed here is ChEMBL document CHEMBL4888484, “Replenishing the malaria drug discovery pipeline: Screening and hit evaluation of the MMV Hit Generation Library 1 (HGL1) against asexual blood stage Plasmodium falciparum ,using a nano luciferase reporter read-out” (2022).

Among all 150,000 compounds or so, about 540 (0.36%) showed an effect of 50% or more. The list shows a part of the results.

The assay relates to Plasmodium falciparum. Kind of assay: Primary screen in NF54 nanoGlo assay, in single point, at 2uM, 72h; a lower Z score goes with more inhibition. The settings on record: timepoint 72 hour. Format: functional, Erythrocyte.
With `CCS(=O)(=O)N1CC(CNC(=O)c2cccs2)C1`, the “% Inhibition” value is on record as -12% and the Z score is reported as 1.33.

For the compound `c1ccc(-c2csc(NCc3ccon3)n2)cc1`, the “% Inhibition” value was 1% and the Z score was -0.21.

On to `CN1C(=O)[C@H](O)[C@H](C(=O)NCCCCO)[C@H]1c1ccccc1`, for which the “% Inhibition” value is recorded as -9% and the Z score is 1.21.

For `CCc1nc(CS(=O)(=O)C[C@H]2CCCO2)n[nH]1`, the “% Inhibition” value is listed as -5% and the Z score is on record as 0.68.

As for `Cc1nnc(Cn2cc(Cl)cn2)n1C`, the “% Inhibition” value is reported as -13% and the Z score turned out to be 1.6.

Consider `Cc1cc(NC(=O)[C@H]2OCCO[C@H]2C)nn1C1CCCCC1`, for which the “% Inhibition” value is on record as -2% and the Z score is 0.22.

For the compound `Cc1cc(CNC(=O)C2CC23CCCN(C(=O)OC(C)(C)C)C3)no1` (stereo unspecified), the “% Inhibition” value was -9% and the Z score is 1.73.

As for `Cc1onc(C(=O)NC2CCCC2)c1C`, the “% Inhibition” value is reported as -31% and the Z score is 3.69.

With `Cc1ccc(C2OCCCC2CNc2nccnc2C#N)cc1` (stereo unspecified), the “% Inhibition” value is reported as 3% and the Z score is given as -0.53.

For `C[C@@]1(C(=O)O)CCCN1Cc1cc(C#CCO)cs1`, the “% Inhibition” value amounted to 0% and the Z score was -0.05.

With `O[C@H]1CCN(Cc2ccc(OCc3ccccc3F)nc2)C1`, the “% Inhibition” value turned out to be 3% and the Z score was -0.24.

As to `CCOC(=O)NC(c1ccccc1F)C1CCCCC1=O` (stereo unspecified), the “% Inhibition” value was found to be 40% and the Z score is -5.1.

On to `O=S(=O)(Nc1ccccc1-c1nc2ccccc2s1)c1ccc(Cl)cc1`, for which the “% Inhibition” value is -17% and the Z score is reported as 2.13.

Regarding `COCCc1nnc2n1CC1CCC(C2)N1C(=O)CCc1ccccc1` (stereo unspecified), the “% Inhibition” value is given as -6% and the Z score is reported as 0.81.

As for `COc1cc(C(=O)NCc2cncn2CC(C)C)ccn1`, the “% Inhibition” value is on record as -14% and the Z score was determined as 1.83.

Regarding `CCc1onc(C)c1[C@@H]1CCCN1C(=O)Cn1nc(C(F)(F)F)c2c1CCCC2`, the “% Inhibition” value is -4% and the Z score is 0.54.

For `COc1ccc2c(c1)[C@](O)(CNC(=O)c1csnc1C)CCC2`, the “% Inhibition” value is reported as -6% and the Z score stood at 0.5.

Turning to `C#CCNC(=O)CN1C=NS(=O)(=O)c2ccccc21`, the “% Inhibition” value was determined as 3% and the Z score is -0.35.

In the case of `CC(C)CC[C@@H](CCNCc1cccnc1)c1ccco1`, the “% Inhibition” value is recorded as -3% and the Z score is 0.43.

With `CC1Oc2ccc(NC(C)c3nc(C(C)C)no3)cc2NC1=O` (stereo unspecified), the “% Inhibition” value amounted to 7% and the Z score was -0.66.

In the case of `CCc1nn2c(S(=O)(=O)N3CCCCCC3)c(C)nc2s1`, the “% Inhibition” value was -14% and the Z score was found to be 1.76.

As to `Cc1ccc(CNC(=O)C2(C#N)CCCC2)c(N(C)C)c1`, the “% Inhibition” value amounted to 7% and the Z score was -0.74.

For the compound `Cc1ccc(N(C)c2nc(-c3ccc(F)cc3)ncc2C(=O)N2CCCCC2)cc1`, the “% Inhibition” value came to 8% and the Z score is recorded as -1.

Turning to `Cn1c(CO)nnc1[C@H]1C[C@@H](NC(=O)c2nc3ccc(Cl)cn3c2F)C1`, the “% Inhibition” value is -18% and the Z score is 2.8.

On to `COc1ccccc1-n1nc(CN(C(=O)C2CCC2)C2CC2)c2c1CCN(Cc1ccccc1F)C2`, for which the “% Inhibition” value was 10% and the Z score is -1.3.

With `CCCCOc1cn(C(C)(C)C)nc1C(C)=O`, the “% Inhibition” value was -14% and the Z score worked out at 1.76.

On to `O=C(c1cn(CCCc2ccccc2)nn1)N1CCc2c(Cl)cccc2C1`, for which the “% Inhibition” value was -13% and the Z score is on record as 1.91.

With `COc1cccc2c(=O)n([C@H]3CN(C(C)C)C[C@@H]3OC)cnc12`, the “% Inhibition” value is -20% and the Z score was 1.78.

`CC1(C)[C@H](Cc2cc(CO)on2)C[C@@H]1NCc1ccccc1`: the “% Inhibition” value is given as -7% and the Z score is reported as 1.02.

For `CC[C@@H](C(C)C)S(=O)(=O)NC(=O)C1CCC(F)(F)CC1`, the “% Inhibition” value is reported as -12% and the Z score stood at 1.61.

With `COc1ccc(-c2noc([C@H](C)O)c2C(=O)NC2CCCCC2)cc1OC`, the “% Inhibition” value was -9% and the Z score turned out to be 1.11.

For `Nc1ccccc1S(=O)(=O)N1CCC(N2CCc3ccccc3C2)CC1`, the “% Inhibition” value is given as -7% and the Z score worked out at 0.7.

In the case of `CN1CC[C@](C)(CNS(=O)(=O)CC2CCCC2)C1`, the “% Inhibition” value is -1% and the Z score was 0.15.

For the compound `Cn1ccnc1C1CNCCN1CC(O)COCc1ccccc1` (stereo unspecified), the “% Inhibition” value was -4% and the Z score was 0.48.

With `COCCN(CC1CN(CC(O)COC)CCO1)C(=O)c1ccccc1` (stereo unspecified), the “% Inhibition” value is reported as -2% and the Z score is listed as 0.31.

Take `Cn1cc(S(=O)(=O)Nc2cccc3c2OC(C)(C)CC3)cn1`: the “% Inhibition” value is -13% and the Z score is on record as 1.73.

Turning to `CC(C)c1nnsc1C(=O)N1CCC[C@H]1c1ccc(CN(C)C)cc1`, the “% Inhibition” value is listed as -4% and the Z score is recorded as 0.7.

On to `CCC[C@H](NC(=O)c1ccc2c(c1)NC(=O)CCN2C)c1nnn[nH]1`, for which the “% Inhibition” value is reported as -4% and the Z score is 0.81.

`CCCc1nnsc1C(=O)Nc1cc2nc(-c3ccccc3)oc2nc1C`: the “% Inhibition” value is -14% and the Z score is 1.75.

For `CC(C)Cn1ncc(NC(=O)N2CCC(=O)[C@@H](C)C2)c1C1CC1`, the “% Inhibition” value is -1% and the Z score turned out to be 0.13.

With `CCOc1ccccc1N1CCN(c2ncnc3[nH]ccc23)CC1`, the “% Inhibition” value amounted to 12% and the Z score is -1.47.

`CC(C)[C@H]1CCO[C@H]1C(=O)Nc1cc(C2CCCC2)nn1C`: the “% Inhibition” value was determined as 1% and the Z score is -0.18.

`Cn1c(CN2CC[C@H](C(N)=O)C2)cc2ccccc21`: the “% Inhibition” value is on record as -5% and the Z score came out at 0.48.
